Patent US20110319597A1 (CAPHALON AUSTRALIA, published 2011)

Assays:
[1] = molecular target: T1, recombinant human TNFα (CytoLab) (human, UniProt P01375 fragment); assay: ELISA on coated human TNFα
T1 construct: coated on the ELISA plate at 1 µg/ml; also called Tumour necrosis factor alpha

recombinant human TNFα = recombinant human TNFα (human, UniProt P01375 fragment); assay: cell-based or functional assay
Chain of recombinant human TNFα (P01375 77-233 limits assumed): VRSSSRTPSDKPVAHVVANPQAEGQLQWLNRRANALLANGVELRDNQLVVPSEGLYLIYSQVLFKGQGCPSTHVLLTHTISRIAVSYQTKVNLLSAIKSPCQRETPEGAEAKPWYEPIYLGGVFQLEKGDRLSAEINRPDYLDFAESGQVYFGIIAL

Row | Binder | A450 (AU) [1] [AU] | Standardized EC50, L929 neutralization assay (5-point) (recombinant human TNFα) [µg/mL]
1 | TNFα dAb Fc variant A43H (Fc fusion, name in Kabat numbering) DIQMTQSPSSLSASVGDRVTITCRASQAIDSYLHWYQQKPGKHPKLLIYSASNLETGVPSRFSGSGSGTDFTLTISSLLPEDFATYYCQQVVWRPFTFGQGTKVEIKRV[human IgG1 Fc with changes left out] | 1.02 | 2.74
2 | TNFα dAb Fc variant A43K (Fc fusion, name in Kabat numbering) DIQMTQSPSSLSASVGDRVTITCRASQAIDSYLHWYQQKPGKKPKLLIYSASNLETGVPSRFSGSGSGTDFTLTISSLLPEDFATYYCQQVVWRPFTFGQGTKVEIKRV[human IgG1 Fc with changes left out] | 1.02 | 3.13
3 | TNFα dAb Fc variant A43Q (Fc fusion, name in Kabat numbering) DIQMTQSPSSLSASVGDRVTITCRASQAIDSYLHWYQQKPGKQPKLLIYSASNLETGVPSRFSGSGSGTDFTLTISSLLPEDFATYYCQQVVWRPFTFGQGTKVEIKRV[human IgG1 Fc with changes left out] | 1.05 | 2.69
4 | TNFα dAb Fc variant A43Y (Fc fusion, name in Kabat numbering) DIQMTQSPSSLSASVGDRVTITCRASQAIDSYLHWYQQKPGKYPKLLIYSASNLETGVPSRFSGSGSGTDFTLTISSLLPEDFATYYCQQVVWRPFTFGQGTKVEIKRV[human IgG1 Fc with changes left out] | 0.976 | 666
5 | TNFα dAb Fc variant D70A (Fc fusion, name in Kabat numbering) DIQMTQSPSSLSASVGDRVTITCRASQAIDSYLHWYQQKPGKAPKLLIYSASNLETGVPSRFSGSGSGTAFTLTISSLLPEDFATYYCQQVVWRPFTFGQGTKVEIKRV[human IgG1 Fc with changes left out] | 0.916 | 2.04
6 | TNFα dAb Fc variant D70Q (Fc fusion, name in Kabat numbering) DIQMTQSPSSLSASVGDRVTITCRASQAIDSYLHWYQQKPGKAPKLLIYSASNLETGVPSRFSGSGSGTQFTLTISSLLPEDFATYYCQQVVWRPFTFGQGTKVEIKRV[human IgG1 Fc with changes left out] | 1.12 | 3.83
7 | TNFα dAb Fc variant D70S (Fc fusion, name in Kabat numbering) DIQMTQSPSSLSASVGDRVTITCRASQAIDSYLHWYQQKPGKAPKLLIYSASNLETGVPSRFSGSGSGTSFTLTISSLLPEDFATYYCQQVVWRPFTFGQGTKVEIKRV[human IgG1 Fc with changes left out] | 1.02 | 1.58
8 | TNFα dAb Fc variant F62H (Fc fusion, name in Kabat numbering) DIQMTQSPSSLSASVGDRVTITCRASQAIDSYLHWYQQKPGKAPKLLIYSASNLETGVPSRHSGSGSGTDFTLTISSLLPEDFATYYCQQVVWRPFTFGQGTKVEIKRV[human IgG1 Fc with changes left out] | 0.241 | 12.3
9 | TNFα dAb Fc variant F62Y (Fc fusion, name in Kabat numbering) DIQMTQSPSSLSASVGDRVTITCRASQAIDSYLHWYQQKPGKAPKLLIYSASNLETGVPSRYSGSGSGTDFTLTISSLLPEDFATYYCQQVVWRPFTFGQGTKVEIKRV[human IgG1 Fc with changes left out] | 0.96 | 0.694
10 | TNFα dAb Fc variant F83A (Fc fusion, name in Kabat numbering) DIQMTQSPSSLSASVGDRVTITCRASQAIDSYLHWYQQKPGKAPKLLIYSASNLETGVPSRFSGSGSGTDFTLTISSLLPEDAATYYCQQVVWRPFTFGQGTKVEIKRV[human IgG1 Fc with changes left out] | 1.14 | 0.682
11 | TNFα dAb Fc variant F83D (Fc fusion, name in Kabat numbering) DIQMTQSPSSLSASVGDRVTITCRASQAIDSYLHWYQQKPGKAPKLLIYSASNLETGVPSRFSGSGSGTDFTLTISSLLPEDDATYYCQQVVWRPFTFGQGTKVEIKRV[human IgG1 Fc with changes left out] | 1.14 | 0.947
12 | TNFα dAb Fc variant F83G (Fc fusion, name in Kabat numbering) DIQMTQSPSSLSASVGDRVTITCRASQAIDSYLHWYQQKPGKAPKLLIYSASNLETGVPSRFSGSGSGTDFTLTISSLLPEDGATYYCQQVVWRPFTFGQGTKVEIKRV[human IgG1 Fc with changes left out] | 1.05 | 6.21
13 | TNFα dAb Fc variant F83H (Fc fusion, name in Kabat numbering) DIQMTQSPSSLSASVGDRVTITCRASQAIDSYLHWYQQKPGKAPKLLIYSASNLETGVPSRFSGSGSGTDFTLTISSLLPEDHATYYCQQVVWRPFTFGQGTKVEIKRV[human IgG1 Fc with changes left out] | 1.02 | 1.33
14 | TNFα dAb Fc variant F83L (Fc fusion, name in Kabat numbering) DIQMTQSPSSLSASVGDRVTITCRASQAIDSYLHWYQQKPGKAPKLLIYSASNLETGVPSRFSGSGSGTDFTLTISSLLPEDLATYYCQQVVWRPFTFGQGTKVEIKRV[human IgG1 Fc with changes left out] | 1 | 0.636
15 | TNFα dAb Fc variant F83P (Fc fusion, name in Kabat numbering) DIQMTQSPSSLSASVGDRVTITCRASQAIDSYLHWYQQKPGKAPKLLIYSASNLETGVPSRFSGSGSGTDFTLTISSLLPEDPATYYCQQVVWRPFTFGQGTKVEIKRV[human IgG1 Fc with changes left out] | 0.453 | 16.9
16 | TNFα dAb Fc variant F83Q (Fc fusion, name in Kabat numbering) DIQMTQSPSSLSASVGDRVTITCRASQAIDSYLHWYQQKPGKAPKLLIYSASNLETGVPSRFSGSGSGTDFTLTISSLLPEDQATYYCQQVVWRPFTFGQGTKVEIKRV[human IgG1 Fc with changes left out] | 1.02 | 1.04
17 | TNFα dAb Fc variant F83S (Fc fusion, name in Kabat numbering) DIQMTQSPSSLSASVGDRVTITCRASQAIDSYLHWYQQKPGKAPKLLIYSASNLETGVPSRFSGSGSGTDFTLTISSLLPEDSATYYCQQVVWRPFTFGQGTKVEIKRV[human IgG1 Fc with changes left out] | 0.503 | 0.839
18 | TNFα dAb Fc variant F83Y (Fc fusion, name in Kabat numbering) DIQMTQSPSSLSASVGDRVTITCRASQAIDSYLHWYQQKPGKAPKLLIYSASNLETGVPSRFSGSGSGTDFTLTISSLLPEDYATYYCQQVVWRPFTFGQGTKVEIKRV[human IgG1 Fc with changes left out] | 1.29 | 0.493
19 | TNFα dAb Fc variant G41H (Fc fusion, name in Kabat numbering) DIQMTQSPSSLSASVGDRVTITCRASQAIDSYLHWYQQKPHKAPKLLIYSASNLETGVPSRFSGSGSGTDFTLTISSLLPEDFATYYCQQVVWRPFTFGQGTKVEIKRV[human IgG1 Fc with changes left out] | 0.925 | 2.41
20 | TNFα dAb Fc variant R18A (Fc fusion, name in Kabat numbering) DIQMTQSPSSLSASVGDAVTITCRASQAIDSYLHWYQQKPGKAPKLLIYSASNLETGVPSRFSGSGSGTDFTLTISSLLPEDFATYYCQQVVWRPFTFGQGTKVEIKRV[human IgG1 Fc with changes left out] |  | 3.21
21 | TNFα dAb Fc variant R18S (Fc fusion, name in Kabat numbering) DIQMTQSPSSLSASVGDSVTITCRASQAIDSYLHWYQQKPGKAPKLLIYSASNLETGVPSRFSGSGSGTDFTLTISSLLPEDFATYYCQQVVWRPFTFGQGTKVEIKRV[human IgG1 Fc with changes left out] |  | 0.851
22 | TNFα dAb Fc variant R18Y (Fc fusion, name in Kabat numbering) DIQMTQSPSSLSASVGDYVTITCRASQAIDSYLHWYQQKPGKAPKLLIYSASNLETGVPSRFSGSGSGTDFTLTISSLLPEDFATYYCQQVVWRPFTFGQGTKVEIKRV[human IgG1 Fc with changes left out] |  | 1.59
23 | TNFα dAb Fc variant R18D (Fc fusion, name in Kabat numbering) DIQMTQSPSSLSASVGDDVTITCRASQAIDSYLHWYQQKPGKAPKLLIYSASNLETGVPSRFSGSGSGTDFTLTISSLLPEDFATYYCQQVVWRPFTFGQGTKVEIKRV[human IgG1 Fc with changes left out] |  | 0.741
24 | TNFα dAb Fc variant R18Q (Fc fusion, name in Kabat numbering) DIQMTQSPSSLSASVGDQVTITCRASQAIDSYLHWYQQKPGKAPKLLIYSASNLETGVPSRFSGSGSGTDFTLTISSLLPEDFATYYCQQVVWRPFTFGQGTKVEIKRV[human IgG1 Fc with changes left out] |  | 2.75
25 | TNFα dAb Fc variant R18H (Fc fusion, name in Kabat numbering) DIQMTQSPSSLSASVGDHVTITCRASQAIDSYLHWYQQKPGKAPKLLIYSASNLETGVPSRFSGSGSGTDFTLTISSLLPEDFATYYCQQVVWRPFTFGQGTKVEIKRV[human IgG1 Fc with changes left out] |  | 2.39
26 | TNFα dAb Fc variant R18P (Fc fusion, name in Kabat numbering) DIQMTQSPSSLSASVGDPVTITCRASQAIDSYLHWYQQKPGKAPKLLIYSASNLETGVPSRFSGSGSGTDFTLTISSLLPEDFATYYCQQVVWRPFTFGQGTKVEIKRV[human IgG1 Fc with changes left out] |  | 1.19
27 | TNFα dAb Fc (Fc fusion) DIQMTQSPSSLSASVGDRVTITCRASQAIDSYLHWYQQKPGKAPKLLIYSASNLETGVPSRFSGSGSGTDFTLTISSLLPEDFATYYCQQVVWRPFTFGQGTKVEIKRV[human IgG1 Fc with changes left out] |  | 1.2
